Results as given in article PMC3632089.
These are yes or no findings as the source states them, for the method shown. In cells and extracts the contact can be indirect. Some entries that bind do so weakly or less than the wild type. Sequences can lack the tags named with a protein.

Protein sequences, listed by entry. Tags and fused reporters are not part of them. Lines headed by an entry give the natural chain unless they say otherwise; changes in a name come on top. Chains listed by the source or under a name are the forms on record and can include a tag or linker. Residues count along the entry.
UniProt Q96J92: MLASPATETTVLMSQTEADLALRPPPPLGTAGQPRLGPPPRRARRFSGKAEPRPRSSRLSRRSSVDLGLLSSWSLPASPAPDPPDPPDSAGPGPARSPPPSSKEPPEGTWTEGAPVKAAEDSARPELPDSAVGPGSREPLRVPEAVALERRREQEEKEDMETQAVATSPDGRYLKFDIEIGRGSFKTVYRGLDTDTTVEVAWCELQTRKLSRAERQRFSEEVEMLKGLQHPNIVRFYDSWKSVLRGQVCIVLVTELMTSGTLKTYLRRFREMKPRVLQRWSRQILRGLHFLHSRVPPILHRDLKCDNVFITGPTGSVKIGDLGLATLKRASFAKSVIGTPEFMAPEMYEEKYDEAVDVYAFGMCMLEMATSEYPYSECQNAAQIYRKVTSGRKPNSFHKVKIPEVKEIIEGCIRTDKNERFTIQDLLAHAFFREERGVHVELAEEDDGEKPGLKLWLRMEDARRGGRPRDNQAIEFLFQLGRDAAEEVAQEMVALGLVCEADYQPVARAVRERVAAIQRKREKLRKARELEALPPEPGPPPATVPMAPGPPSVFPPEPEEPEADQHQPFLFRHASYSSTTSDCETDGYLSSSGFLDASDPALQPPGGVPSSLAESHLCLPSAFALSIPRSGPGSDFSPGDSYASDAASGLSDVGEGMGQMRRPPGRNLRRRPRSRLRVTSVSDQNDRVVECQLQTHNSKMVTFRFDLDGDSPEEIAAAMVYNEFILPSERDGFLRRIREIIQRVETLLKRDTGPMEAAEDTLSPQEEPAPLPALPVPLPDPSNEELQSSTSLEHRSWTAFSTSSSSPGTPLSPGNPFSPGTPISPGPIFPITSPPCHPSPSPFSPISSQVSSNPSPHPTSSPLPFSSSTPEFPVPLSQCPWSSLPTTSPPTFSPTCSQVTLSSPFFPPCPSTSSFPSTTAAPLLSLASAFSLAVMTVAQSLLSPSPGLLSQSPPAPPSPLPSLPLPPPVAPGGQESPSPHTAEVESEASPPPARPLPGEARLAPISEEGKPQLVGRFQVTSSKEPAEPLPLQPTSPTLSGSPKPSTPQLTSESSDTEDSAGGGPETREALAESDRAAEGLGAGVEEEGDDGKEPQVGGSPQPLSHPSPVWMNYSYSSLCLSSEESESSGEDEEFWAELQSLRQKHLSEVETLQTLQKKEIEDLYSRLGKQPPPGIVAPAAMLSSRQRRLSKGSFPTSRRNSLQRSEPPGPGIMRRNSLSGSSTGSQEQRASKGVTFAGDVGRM
UniProt Q9H4A3: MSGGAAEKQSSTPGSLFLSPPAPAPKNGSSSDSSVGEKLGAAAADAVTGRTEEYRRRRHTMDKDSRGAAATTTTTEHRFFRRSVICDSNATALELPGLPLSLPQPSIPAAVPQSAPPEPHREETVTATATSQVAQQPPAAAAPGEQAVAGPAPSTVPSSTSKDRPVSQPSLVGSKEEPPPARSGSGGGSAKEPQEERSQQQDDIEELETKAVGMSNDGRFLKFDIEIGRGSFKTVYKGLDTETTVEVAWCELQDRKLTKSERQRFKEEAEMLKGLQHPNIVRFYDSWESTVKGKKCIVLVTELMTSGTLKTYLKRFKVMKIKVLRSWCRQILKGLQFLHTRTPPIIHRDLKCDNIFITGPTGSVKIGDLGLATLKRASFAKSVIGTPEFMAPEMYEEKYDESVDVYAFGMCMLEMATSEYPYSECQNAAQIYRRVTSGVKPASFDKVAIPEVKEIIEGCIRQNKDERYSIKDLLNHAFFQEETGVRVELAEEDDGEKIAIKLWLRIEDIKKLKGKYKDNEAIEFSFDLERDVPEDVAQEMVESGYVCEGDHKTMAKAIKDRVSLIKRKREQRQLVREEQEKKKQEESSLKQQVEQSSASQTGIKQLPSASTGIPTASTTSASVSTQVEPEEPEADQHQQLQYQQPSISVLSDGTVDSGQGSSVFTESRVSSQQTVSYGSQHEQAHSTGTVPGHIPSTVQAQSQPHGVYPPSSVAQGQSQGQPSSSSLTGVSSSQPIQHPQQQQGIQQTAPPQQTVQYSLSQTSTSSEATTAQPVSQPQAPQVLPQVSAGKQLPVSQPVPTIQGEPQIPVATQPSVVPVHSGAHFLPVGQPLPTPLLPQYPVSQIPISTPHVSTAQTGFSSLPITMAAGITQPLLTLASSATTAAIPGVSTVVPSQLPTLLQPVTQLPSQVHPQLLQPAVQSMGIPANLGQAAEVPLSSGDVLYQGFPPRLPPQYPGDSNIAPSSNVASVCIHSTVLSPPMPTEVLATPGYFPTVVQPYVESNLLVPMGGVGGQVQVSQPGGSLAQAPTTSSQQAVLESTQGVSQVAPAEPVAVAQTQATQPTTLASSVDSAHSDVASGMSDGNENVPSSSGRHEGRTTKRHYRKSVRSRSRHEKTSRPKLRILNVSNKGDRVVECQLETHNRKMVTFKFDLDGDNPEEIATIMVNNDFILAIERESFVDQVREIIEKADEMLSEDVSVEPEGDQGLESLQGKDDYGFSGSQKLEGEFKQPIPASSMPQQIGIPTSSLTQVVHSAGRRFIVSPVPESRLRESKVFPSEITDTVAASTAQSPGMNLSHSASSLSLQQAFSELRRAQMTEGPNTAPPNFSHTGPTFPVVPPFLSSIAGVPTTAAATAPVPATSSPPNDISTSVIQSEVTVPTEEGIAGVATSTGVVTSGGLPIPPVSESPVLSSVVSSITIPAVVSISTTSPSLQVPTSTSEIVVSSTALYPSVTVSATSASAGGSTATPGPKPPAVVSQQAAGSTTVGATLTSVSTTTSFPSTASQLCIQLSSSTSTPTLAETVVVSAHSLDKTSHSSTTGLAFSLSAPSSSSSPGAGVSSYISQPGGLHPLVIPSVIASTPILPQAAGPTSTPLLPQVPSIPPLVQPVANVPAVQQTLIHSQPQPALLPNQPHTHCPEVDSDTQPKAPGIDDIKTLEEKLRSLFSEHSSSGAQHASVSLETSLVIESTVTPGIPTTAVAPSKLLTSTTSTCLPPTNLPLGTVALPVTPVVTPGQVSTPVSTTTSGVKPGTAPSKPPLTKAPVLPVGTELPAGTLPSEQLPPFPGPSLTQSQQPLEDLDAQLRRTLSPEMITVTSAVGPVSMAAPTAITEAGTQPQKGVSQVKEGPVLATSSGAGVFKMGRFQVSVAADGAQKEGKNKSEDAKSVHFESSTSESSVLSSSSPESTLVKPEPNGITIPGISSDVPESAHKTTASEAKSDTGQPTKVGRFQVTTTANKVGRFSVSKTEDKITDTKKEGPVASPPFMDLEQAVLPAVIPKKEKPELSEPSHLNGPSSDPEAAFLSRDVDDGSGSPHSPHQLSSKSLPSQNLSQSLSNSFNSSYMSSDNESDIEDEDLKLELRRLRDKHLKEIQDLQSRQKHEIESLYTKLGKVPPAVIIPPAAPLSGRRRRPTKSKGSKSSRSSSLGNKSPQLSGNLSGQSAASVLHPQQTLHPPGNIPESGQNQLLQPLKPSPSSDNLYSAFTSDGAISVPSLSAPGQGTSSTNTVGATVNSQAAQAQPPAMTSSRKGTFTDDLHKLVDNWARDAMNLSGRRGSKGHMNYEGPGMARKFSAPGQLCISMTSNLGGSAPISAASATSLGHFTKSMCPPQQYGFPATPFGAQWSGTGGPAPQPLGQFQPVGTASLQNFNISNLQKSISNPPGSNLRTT
GST-tagged WNK1[479–667] fragment: residues 479-667 of Q9H4A3
GST-tagged WNK1[479–667] D635A (Q9H4A3, form named): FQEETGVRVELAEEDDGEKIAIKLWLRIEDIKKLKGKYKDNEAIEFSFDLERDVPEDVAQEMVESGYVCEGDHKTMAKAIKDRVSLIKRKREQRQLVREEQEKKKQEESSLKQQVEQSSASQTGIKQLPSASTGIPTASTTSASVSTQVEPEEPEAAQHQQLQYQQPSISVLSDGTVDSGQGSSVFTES
GST-tagged WNK1[479–667] E633K (Q9H4A3, form named): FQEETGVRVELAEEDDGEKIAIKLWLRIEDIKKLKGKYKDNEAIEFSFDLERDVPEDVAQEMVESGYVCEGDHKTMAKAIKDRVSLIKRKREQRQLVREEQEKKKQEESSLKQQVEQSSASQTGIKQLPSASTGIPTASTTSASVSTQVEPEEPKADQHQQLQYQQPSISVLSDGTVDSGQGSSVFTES
GST-tagged WNK1[479–667] Q636E (Q9H4A3, form named): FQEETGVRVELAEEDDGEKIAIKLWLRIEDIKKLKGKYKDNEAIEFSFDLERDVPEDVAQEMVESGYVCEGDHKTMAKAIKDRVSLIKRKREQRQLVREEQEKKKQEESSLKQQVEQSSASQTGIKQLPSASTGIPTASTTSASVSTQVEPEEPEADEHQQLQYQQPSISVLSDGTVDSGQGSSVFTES

T1: GFP-tagged wild-type KLHL3 (human) (UniProt Q9UH77)
T1 sequence: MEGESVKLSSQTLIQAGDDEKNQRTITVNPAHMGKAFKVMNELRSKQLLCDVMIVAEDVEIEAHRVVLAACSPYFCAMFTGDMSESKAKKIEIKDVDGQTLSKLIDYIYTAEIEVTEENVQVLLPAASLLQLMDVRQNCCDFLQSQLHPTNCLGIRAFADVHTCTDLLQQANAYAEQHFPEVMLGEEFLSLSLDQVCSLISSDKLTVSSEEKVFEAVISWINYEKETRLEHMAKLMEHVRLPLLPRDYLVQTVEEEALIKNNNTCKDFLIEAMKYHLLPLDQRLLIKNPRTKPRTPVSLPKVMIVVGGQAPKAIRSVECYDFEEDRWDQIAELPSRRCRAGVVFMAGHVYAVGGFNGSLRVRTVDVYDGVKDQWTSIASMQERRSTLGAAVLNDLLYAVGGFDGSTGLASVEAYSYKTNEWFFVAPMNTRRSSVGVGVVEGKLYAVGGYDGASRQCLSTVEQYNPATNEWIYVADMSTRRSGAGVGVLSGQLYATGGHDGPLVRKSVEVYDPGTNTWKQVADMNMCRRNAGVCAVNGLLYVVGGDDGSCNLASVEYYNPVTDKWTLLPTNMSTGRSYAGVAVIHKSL

T2: FLAG-tagged KLHL3[A340V] (human) (UniProt Q9UH77)
T2 sequence: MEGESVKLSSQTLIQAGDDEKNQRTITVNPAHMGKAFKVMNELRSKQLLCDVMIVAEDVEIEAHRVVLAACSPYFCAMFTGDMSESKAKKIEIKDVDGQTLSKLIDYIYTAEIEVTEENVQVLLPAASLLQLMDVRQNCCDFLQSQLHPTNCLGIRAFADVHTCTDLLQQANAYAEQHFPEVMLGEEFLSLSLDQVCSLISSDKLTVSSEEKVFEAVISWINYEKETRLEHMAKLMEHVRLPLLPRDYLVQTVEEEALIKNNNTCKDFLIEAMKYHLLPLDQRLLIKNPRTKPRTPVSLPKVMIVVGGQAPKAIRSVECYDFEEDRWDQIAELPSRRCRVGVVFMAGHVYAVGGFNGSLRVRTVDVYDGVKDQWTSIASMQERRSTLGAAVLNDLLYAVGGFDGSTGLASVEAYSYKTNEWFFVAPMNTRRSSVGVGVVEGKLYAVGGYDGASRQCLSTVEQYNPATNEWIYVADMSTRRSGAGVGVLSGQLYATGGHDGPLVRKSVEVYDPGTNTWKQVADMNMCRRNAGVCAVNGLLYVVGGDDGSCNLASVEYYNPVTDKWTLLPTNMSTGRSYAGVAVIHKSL

T3: FLAG-tagged KLHL3[A494T] (human) (UniProt Q9UH77)
T3 sequence: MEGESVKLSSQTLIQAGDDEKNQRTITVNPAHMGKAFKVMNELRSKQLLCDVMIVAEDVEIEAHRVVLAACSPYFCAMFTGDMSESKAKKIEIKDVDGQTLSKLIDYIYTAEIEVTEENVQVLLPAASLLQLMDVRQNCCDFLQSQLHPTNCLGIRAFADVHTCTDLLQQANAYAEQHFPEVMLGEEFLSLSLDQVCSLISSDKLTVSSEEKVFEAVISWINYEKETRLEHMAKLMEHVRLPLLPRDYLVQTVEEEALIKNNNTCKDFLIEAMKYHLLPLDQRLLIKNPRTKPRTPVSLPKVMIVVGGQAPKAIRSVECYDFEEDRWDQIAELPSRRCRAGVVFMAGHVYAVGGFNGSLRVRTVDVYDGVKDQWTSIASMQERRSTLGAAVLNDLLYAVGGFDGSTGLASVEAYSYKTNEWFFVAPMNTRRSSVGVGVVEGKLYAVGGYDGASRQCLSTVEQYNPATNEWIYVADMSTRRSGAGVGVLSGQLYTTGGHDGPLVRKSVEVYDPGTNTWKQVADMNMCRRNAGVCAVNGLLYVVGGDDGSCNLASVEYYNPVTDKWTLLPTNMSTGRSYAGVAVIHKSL

T4: FLAG-tagged KLHL3[R528H] (human) (UniProt Q9UH77)
T4 sequence: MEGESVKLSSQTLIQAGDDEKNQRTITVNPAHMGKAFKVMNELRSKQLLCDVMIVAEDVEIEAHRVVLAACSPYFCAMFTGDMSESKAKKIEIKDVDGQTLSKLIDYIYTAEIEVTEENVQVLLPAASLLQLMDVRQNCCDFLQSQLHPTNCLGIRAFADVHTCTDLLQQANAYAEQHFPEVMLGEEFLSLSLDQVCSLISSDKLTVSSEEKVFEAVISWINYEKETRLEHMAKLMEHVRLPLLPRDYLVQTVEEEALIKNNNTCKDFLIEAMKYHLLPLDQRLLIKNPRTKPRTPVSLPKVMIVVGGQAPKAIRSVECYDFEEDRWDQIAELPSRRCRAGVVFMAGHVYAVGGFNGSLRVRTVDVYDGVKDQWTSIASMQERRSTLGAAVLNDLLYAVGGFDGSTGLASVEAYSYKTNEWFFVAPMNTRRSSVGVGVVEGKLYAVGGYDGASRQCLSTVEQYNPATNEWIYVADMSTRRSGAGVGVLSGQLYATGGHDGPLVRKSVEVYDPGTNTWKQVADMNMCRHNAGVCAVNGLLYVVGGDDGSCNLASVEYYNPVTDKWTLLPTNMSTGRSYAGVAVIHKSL

T5: FLAG-tagged KLHL3[S432N] (human) (UniProt Q9UH77)
T5 sequence: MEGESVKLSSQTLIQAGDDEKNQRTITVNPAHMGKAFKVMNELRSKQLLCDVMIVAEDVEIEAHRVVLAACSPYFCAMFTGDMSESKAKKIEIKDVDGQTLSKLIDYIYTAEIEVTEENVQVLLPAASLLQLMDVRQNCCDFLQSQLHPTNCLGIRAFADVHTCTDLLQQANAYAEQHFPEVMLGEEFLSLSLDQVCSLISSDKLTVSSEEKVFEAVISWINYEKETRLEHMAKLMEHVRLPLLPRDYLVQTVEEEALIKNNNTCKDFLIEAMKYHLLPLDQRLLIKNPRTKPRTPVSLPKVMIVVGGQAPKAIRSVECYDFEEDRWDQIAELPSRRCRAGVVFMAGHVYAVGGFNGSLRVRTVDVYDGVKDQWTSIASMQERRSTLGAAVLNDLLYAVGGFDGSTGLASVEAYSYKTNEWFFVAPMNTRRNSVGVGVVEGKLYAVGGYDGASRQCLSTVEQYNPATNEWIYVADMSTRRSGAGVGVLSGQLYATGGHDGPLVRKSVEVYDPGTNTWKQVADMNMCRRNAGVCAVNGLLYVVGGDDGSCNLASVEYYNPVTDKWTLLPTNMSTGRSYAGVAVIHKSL

T6: FLAG-tagged wild-type KLHL3 (Kelch-like 3) (human) (UniProt Q9UH77)
T6 sequence: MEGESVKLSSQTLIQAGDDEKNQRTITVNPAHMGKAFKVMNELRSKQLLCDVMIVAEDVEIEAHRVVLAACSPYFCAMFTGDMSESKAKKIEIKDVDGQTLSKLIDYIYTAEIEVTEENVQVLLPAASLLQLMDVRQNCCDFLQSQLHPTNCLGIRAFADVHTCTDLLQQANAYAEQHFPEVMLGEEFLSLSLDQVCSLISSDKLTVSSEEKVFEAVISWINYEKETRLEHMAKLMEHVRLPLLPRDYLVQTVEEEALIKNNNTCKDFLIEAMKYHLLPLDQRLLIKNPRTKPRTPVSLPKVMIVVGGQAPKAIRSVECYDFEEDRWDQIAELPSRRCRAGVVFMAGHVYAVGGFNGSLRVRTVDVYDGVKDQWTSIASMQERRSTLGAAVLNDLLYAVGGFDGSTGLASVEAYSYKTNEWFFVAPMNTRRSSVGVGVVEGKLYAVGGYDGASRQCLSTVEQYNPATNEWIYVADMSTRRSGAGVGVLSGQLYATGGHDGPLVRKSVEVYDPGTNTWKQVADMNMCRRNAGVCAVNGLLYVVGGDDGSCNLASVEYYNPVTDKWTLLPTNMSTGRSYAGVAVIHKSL


Experiments:
[1] = target: T1, GFP-tagged wild-type KLHL3 (human); test: co-IP; GFP-KLHL3 transfected into HEK-293 cells stably expressing FLAG-NCC; anti-GFP agarose IP from 0.2 mg extract; immunoblot
[2] = target: T2, FLAG-tagged KLHL3[A340V] (human); test: co-IP; anti-FLAG agarose IP of FLAG-KLHL3 (wild type or mutant) from 0.2-5 mg HEK-293 lysate; washes with 0.5 M NaCl; immunoblot for endogenous WNK1 and CUL3
[3] = target: T3, FLAG-tagged KLHL3[A494T] (human); test: as above
[4] = target: T4, FLAG-tagged KLHL3[R528H] (human); test: as above
[5] = target: T5, FLAG-tagged KLHL3[S432N] (human); test: as above
[6] = target: T6, FLAG-tagged wild-type KLHL3 (Kelch-like 3) (human); test: as above
[7] = target: FLAG-tagged wild-type WNK4 (UniProt Q96J92); test: co-IP; GFP-KLHL3 transfected into HEK-293 cells stably expressing FLAG-WNK4 (wild type or mutant); anti-FLAG IP and anti-GFP IP, immunoblot
[8] = target: GST-tagged WNK1[479–667] D635A (UniProt Q9H4A3); test: pull-down + co-IP; GST-WNK1 fragments transfected into HEK-293 cells stably expressing GFP-KLHL3; glutathione-Sepharose purification blotted with anti-GFP, and anti-GFP IP blotted with anti-GST
[9] = target: GST-tagged WNK1[479–667] E633K (UniProt Q9H4A3); test: as above
[10] = target: GST-tagged WNK1[479–667] Q636E (UniProt Q9H4A3); test: as above
[11] = target: GST-tagged WNK1[479–667] fragment (UniProt Q9H4A3); test: as above

binding [1]	binding [2]	binding [3]	binding [4]	binding [5]	binding [6]	binding [7]	binding [8]	binding [9]	binding [10]	binding [11]	Molecule
binds	binds	binds	binds	no binding	binds						WNK1 (with no lysine kinase 1), endogenous (from UniProt Q9H4A3 1-2382)
no binding											FLAG–NCC (Na+/Cl- co-transporter) (protein, UniProt P55017 1-1021) MAELPTTETPGDATLCSGRFTISTLLSSDEPSPPAAYDSSHPSHLTHSSTFCMRTFGYNTIDVVPTYEHYANSTQPGEPRKVRPTLADLHSFLKQEGRHLHALAFDSRPSHEMTDGLVEGEAGTSSEKNPEEPVRFGWVKGVMIRCMLNIWGVILYLRLPWITAQAGIVLTWIIILLSVTVTSITGLSISAISTNGKVKSGGTYFLISRSLGPELGGSIGLIFAFANAVGVAMHTVGFAETVRDLLQEYGAPIVDPINDIRIIAVVSVTVLLAISLAGMEWESKAQVLFFLVIMVSFANYLVGTLIPPSEDKASKGFFSYRADIFVQNLVPDWRGPDGTFFGMFSIFFPSATGILAGANISGDLKDPAIAIPKGTLMAIFWTTISYLAISATIGSCVVRDASGVLNDTVTPGWGACEGLACSYGWNFTECTQQHSCHYGLINYYQTMSMVSGFAPLITAGIFGATLSSALACLVSAAKVFQCLCEDQLYPLIGFFGKGYGKNKEPVRGYLLAYAIAVAFIIIAELNTIAPIISNFFLCSYALINFSCFHASITNSPGWRPSFQYYNKWAALFGAIISVVIMFLLTWWAALIAIGVVLFLLLYVIYKKPEVNWGSSVQAGSYNLALSYSVGLNEVEDHIKNYRPQCLVLTGPPNFRPALVDFVGTFTRNLSLMICGHVLIGPHKQRMPELQLIANGHTKWLNKRKIKAFYSDVIAEDLRRGVQILMQAAGLGRMKPNILVVGFKKNWQSAHPATVEDYIGILHDAFDFNYGVCVMRMREGLNVSKMMQAHINPVFDPAEDGKEASARVDPKALVKEEQATTIFQSEQGKKTIDIYWLFDDGGLTLLIPYLLGRKRRWSKCKIRVFVGGQINRMDQERKAIISLLSKFRLGFHEVHILPDINQNPRAEHTKRFEDMIAPFRLNDGFKDEATVNEMRRDCPWKISDEEITKNRVKSLRQVRLNEIVLDYSRDAALIVITLPIGRKGKCPSSLYMAWLETLSQDLRPPVILIRGNQENVLTFYCQ
						binds	no binding	no binding	no binding	binds	GFP-tagged wild-type KLHL3 (protein, UniProt Q9UH77-1 1-587) MEGESVKLSSQTLIQAGDDEKNQRTITVNPAHMGKAFKVMNELRSKQLLCDVMIVAEDVEIEAHRVVLAACSPYFCAMFTGDMSESKAKKIEIKDVDGQTLSKLIDYIYTAEIEVTEENVQVLLPAASLLQLMDVRQNCCDFLQSQLHPTNCLGIRAFADVHTCTDLLQQANAYAEQHFPEVMLGEEFLSLSLDQVCSLISSDKLTVSSEEKVFEAVISWINYEKETRLEHMAKLMEHVRLPLLPRDYLVQTVEEEALIKNNNTCKDFLIEAMKYHLLPLDQRLLIKNPRTKPRTPVSLPKVMIVVGGQAPKAIRSVECYDFEEDRWDQIAELPSRRCRAGVVFMAGHVYAVGGFNGSLRVRTVDVYDGVKDQWTSIASMQERRSTLGAAVLNDLLYAVGGFDGSTGLASVEAYSYKTNEWFFVAPMNTRRSSVGVGVVEGKLYAVGGYDGASRQCLSTVEQYNPATNEWIYVADMSTRRSGAGVGVLSGQLYATGGHDGPLVRKSVEVYDPGTNTWKQVADMNMCRRNAGVCAVNGLLYVVGGDDGSCNLASVEYYNPVTDKWTLLPTNMSTGRSYAGVAVIHKSL
